Reference: PubChem BioAssay AID1346428 (National Center for Advancing Translational Sciences (NCATS), 2018)
Values joined by “and” are separate entries in the source; they are usually repeats but may differ in a detail not shown here. Identical values can stand only once. Out of some 48,000 compounds screened, about 1,200 (2.5%) were called active. Not shown: some 2% with an inconclusive outcome.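 The calls were made as follows: active = activation of at least 60% and not above a set upper limit (about 1 call in 100 departs from these limits); inconclusive = activation of 40% to 60%, or above that upper limit; inactive = activation under 40%.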 The list shows a part of the results.

molecular target: Probable G-protein coupled receptor 32 (Homo sapiens) (UniProt O75388); test: qHTS for Agonists of Human Resolvin D1 Receptor DRV1; details: CHO-K1 GPR32 beta-arrestin PathHunter luminescence, 90 min; at 76.9 µM; hits give high values; zero percent set by DMSO-only wells; also: 0% is about no effect
How it was run: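 GPR32 activation in stably transfected CHO-K1 cells, detected as beta-arrestin recruitment by enzyme-fragment complementation. Compound exposure: 90 min, 37 °C.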

Sequence of UniProt O75388 (O75388 whole entry, looked up, the tested form may be a part): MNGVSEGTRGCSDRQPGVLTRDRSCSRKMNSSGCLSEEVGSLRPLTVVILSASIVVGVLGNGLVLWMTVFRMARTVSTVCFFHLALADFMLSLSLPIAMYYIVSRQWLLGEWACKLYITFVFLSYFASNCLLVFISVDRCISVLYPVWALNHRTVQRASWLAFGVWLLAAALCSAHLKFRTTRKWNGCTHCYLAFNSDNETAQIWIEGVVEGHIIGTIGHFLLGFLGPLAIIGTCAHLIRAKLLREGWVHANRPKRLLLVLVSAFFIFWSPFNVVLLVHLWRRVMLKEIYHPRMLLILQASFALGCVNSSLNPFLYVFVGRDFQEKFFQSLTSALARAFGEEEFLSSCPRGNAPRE

activation, inactive:
COc1cccc(-c2nc(CS(=O)(=O)CC(=O)NCc3ccc(C)cc3)c(C)o2)c1 -16.7%
CCOc1cc(-c2nc3c(c(CC)nn3-c3ccccc3)c3cc(OC)c(OC)cc23)ccc1O -0.834%
Cc1ccc(-c2nnc(SCc3ccccc3C#N)o2)cc1 -17.4%
Cc1ccc(C)c(NC(=O)Cn2c(=O)n(Cc3ccco3)c(=O)c3oc4ccccc4c32)c1 -21.9%
Cc1ccc2c(c1)NC(c1cccnc1)=NC(c1ccc(F)cc1)=N2 -0.168%
Oc1cc(O)c2c(c1)O[C@H](c1ccc(O)c(O)c1)[C@H](O)C2 -50.8%
Nc1nc2ccc(OC(F)(F)F)cc2s1 10% and 1.14%
CCOC(=O)C(CC)n1nc(C)n2c(cc3occc32)c1=O (centres undefined) 0.468%
COc1ccc(C(=O)COC(=O)c2cccc(NC(=O)c3ccc(OC)c(OC)c3)c2)cc1 1.61%
Cc1cccc(OCC(=O)OCc2cc(=O)n3nc(C4CCCCC4)sc3n2)c1 -2.38%
Cc1csc2nc(-c3cccc(NC(=O)c4ccccc4Cl)c3)cn12 -6.27%
Cc1ccc(-c2nc3ccccn3c2Nc2ccc3c(c2)OCO3)cc1 -21.8%
COc1ccnc2c1CCCCC2S(=O)c1nc2ccccc2[nH]1 (centres undefined) 9.92%
Cc1ccc(CNC(=O)CCc2c(C)nn(-c3ccc(N4CCCCC4)nn3)c2C)cc1 -5.71%
COc1ccc(C(=O)c2cn(Cc3ccc(F)cc3)c3ccc(C)cc3c2=O)cc1 -16.4%
CN1CCC(=C2c3ccccc3CCc3cccnc32)CC1 -31.8%
O=C(NC1CCCCCC1)C1CCN(C(=O)N2CCOc3ccccc32)CC1 -13.6%
Cc1ccc(S(=O)(=O)NCC(c2ccc(N(C)C)cc2)N2CCOCC2)cc1 (centres undefined) -22.4%
Cc1ccc(S(=O)(=O)NCCc2nnc3ccc(SCc4ccccc4C)nn23)cc1 -24.8%
COc1ccc(N2CCN(C(=O)Cn3cnc4nc5c(cc4c3=O)CCCC5)CC2)cc1 -9.98%
CCOC(=O)c1cccc(NC(=O)c2cc(CN3CCCC3)on2)c1 -0.706%
COc1ccc(/C=C\c2onc(C)c2S(=O)(=O)N2CCC(C(=O)Nc3ccccc3OC)CC2)cc1 -21.3%
COc1ccc(OC)c(NC(=O)CSc2c3c(nc4ccccc24)CCCC3)c1 -25.1%
CC1CCN(S(=O)(=O)c2ccc3c(c2)N(CC(=O)NC(C)C)C(=O)CS3)CC1 -2.87%
